# Measurements as given in the supplement of paper PMC8728848.
# This is one part of the list.
# B1: UEA-I (Ulex europaeus), P22972 (protein)
# chain: SDDLSFKFKNFSQNGKDLSFQGDASVIETGVLQLNKVGNNLPDETGGIARYIAPIHIWNCNTGEVASFITSFSFFMETSANPKAATDGLTFFLAPPDSPLRRAGGYFGLFEDTKDNDSSYQTVAVEFDTIGSPVNFDDPGFPHIGIDVNRVKSINAERWNKRYGLNNVANVEIIYEASSKTLTASLTYPSDQTSISVTSIVDLKEILPEWVSVGFSGGTYIGRQATHEVLNWYFTSNLINTNS
# Legend:
# Assay in all cases: glycan array binding signal (z-score within array); higher = stronger binding
# Settings in all cases: glycan notation: IUPAC condensed, linker removed
# [1] = molecular target: Man(a1-2)Man(a1-6)[Man(a1-3)]Man(a1-6)[Man(a1-2)Man(a1-2)Man(a1-3)]Man(b1-4)GlcNAc(b1-4)GlcNAc
# Summary of the method: (§1)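 The binding signal is a Z-score computed within each array and averaged over linkers. Arrays of the same protein sequence at different concentrations or buffers were also averaged together. Data originate from 3228 arrays in the Consortium for Functional Glycomics database, kept only where the protein sequence was available.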
# Man(a1-3)[Man(a1-6)]Man = molecular target: Man(a1-3)[Man(a1-6)]Man
# Summary of the method: as §1
# [2] = molecular target: Man(a1-3)[Man(a1-6)]Man(a1-6)[Man(a1-2)Man(a1-3)]Man(b1-4)GlcNAc(b1-4)GlcNAc
# Summary of the method: as §1
# [3] = molecular target: Man(a1-3)[Man(a1-6)]Man(a1-6)[Man(a1-3)]Man
# Summary of the method: as §1
# [4] = molecular target: Man(a1-3)[Man(a1-6)]Man(a1-6)[Man(a1-3)]Man(b1-4)GlcNAc(b1-4)GlcNAc
# Summary of the method: as §1
# [5] = molecular target: Man(a1-3)[Man(a1-6)]Man(b1-4)GlcNAc(b1-4)GlcNAc
# Summary of the method: as §1
# [6] = molecular target: Man(a1-3)[Man(a1-6)]Man(b1-4)GlcNAc(b1-4)[Fuc(a1-6)]GlcNAc
# Summary of the method: as §1
# Man(a1-6)Man = molecular target: Man(a1-6)Man
# Summary of the method: as §1
# Man(b1-4)GlcNAc = molecular target: Man(b1-4)GlcNAc
# Summary of the method: as §1
# MurNAc(b1-4)GlcNAc = molecular target: MurNAc(b1-4)GlcNAc
# Summary of the method: as §1
# Neu5Ac(a2-3)Gal = molecular target: Neu5Ac(a2-3)Gal
# Summary of the method: as §1
# [7] = molecular target: Neu5Ac(a2-3)Gal(b1-3)GalNAc
# Summary of the method: as §1
# [8] = molecular target: Neu5Ac(a2-3)Gal(b1-3)GalNAc(b1-3)Gal(a1-4)Gal(b1-4)Glc
# Summary of the method: as §1
# [9] = molecular target: Neu5Ac(a2-3)Gal(b1-3)GalNAc(b1-3)Gal(b1-4)GlcNAc
# Summary of the method: as §1
# [10] = molecular target: Neu5Ac(a2-3)Gal(b1-3)GalNAc(b1-4)[Neu5Ac(a2-3)]Gal(b1-4)Glc
# Summary of the method: as §1
# [11] = molecular target: Neu5Ac(a2-3)Gal(b1-3)GalNAc(b1-4)[Neu5Ac(a2-8)Neu5Ac(a2-3)]Gal(b1-4)Glc
# Summary of the method: as §1
# [12] = molecular target: Neu5Ac(a2-3)Gal(b1-3)GalNAc6S
# Summary of the method: as §1
# [13] = molecular target: Neu5Ac(a2-3)Gal(b1-3)GlcNAc
# Summary of the method: as §1
# [14] = molecular target: Neu5Ac(a2-3)Gal(b1-3)GlcNAc(b1-2)Man
# Summary of the method: as §1
# [15] = molecular target: Neu5Ac(a2-3)Gal(b1-3)GlcNAc(b1-2)Man(a1-3)[GlcNAc(b1-4)][Neu5Ac(a2-3)Gal(b1-3)GlcNAc(b1-2)Man(a1-6)]Man(b1-4)GlcNAc(b1-4)GlcNAc
# Summary of the method: as §1
# [16] = molecular target: Neu5Ac(a2-3)Gal(b1-3)GlcNAc(b1-2)Man(a1-3)[Neu5Ac(a2-3)Gal(b1-3)GlcNAc(b1-2)Man(a1-6)]Man(b1-4)GlcNAc(b1-4)GlcNAc
# Summary of the method: as §1
# [17] = molecular target: Neu5Ac(a2-3)Gal(b1-3)GlcNAc(b1-3)Gal(b1-3)GlcNAc
# Summary of the method: as §1
# [18] = molecular target: Neu5Ac(a2-3)Gal(b1-3)GlcNAc(b1-3)Gal(b1-4)GlcNAc
# Summary of the method: as §1
# [19] = molecular target: Neu5Ac(a2-3)Gal(b1-3)GlcNAc(b1-3)GalNAc
# Summary of the method: as §1
# [20] = molecular target: Neu5Ac(a2-3)Gal(b1-3)GlcNAc(b1-4)Gal(b1-4)Glc
# Summary of the method: as §1
# [21] = molecular target: Neu5Ac(a2-3)Gal(b1-3)GlcNAc(b1-6)GalNAc
# Summary of the method: as §1
# [22] = molecular target: Neu5Ac(a2-3)Gal(b1-3)GlcNAc6S
# Summary of the method: as §1
# [23] = molecular target: Neu5Ac(a2-3)Gal(b1-3)[Fuc(a1-4)]GlcNAc
# Summary of the method: as §1
# [24] = molecular target: Neu5Ac(a2-3)Gal(b1-3)[Fuc(a1-4)]GlcNAc(b1-3)Gal(b1-3)[Fuc(a1-4)]GlcNAc
# Summary of the method: as §1
# [25] = molecular target: Neu5Ac(a2-3)Gal(b1-3)[Fuc(a1-4)]GlcNAc(b1-3)Gal(b1-4)[Fuc(a1-3)]GlcNAc
# Summary of the method: as §1
# [26] = molecular target: Neu5Ac(a2-3)Gal(b1-3)[GlcNAc(b1-6)]GalNAc
# Summary of the method: as §1
# [27] = molecular target: Neu5Ac(a2-3)Gal(b1-3)[Neu5Ac(a2-3)Gal(b1-4)]GlcNAc
# Summary of the method: as §1
# [28] = molecular target: Neu5Ac(a2-3)Gal(b1-3)[Neu5Ac(a2-6)]GalNAc
# Summary of the method: as §1
# [29] = molecular target: Neu5Ac(a2-3)Gal(b1-3)[Neu5Ac(a2-6)]GlcNAc(b1-3)[Fuc(a1-3)[Gal(b1-4)]GlcNAc(b1-6)]Gal(b1-4)Glc
# Summary of the method: as §1
# [30] = molecular target: Neu5Ac(a2-3)Gal(b1-3)]Neu5Ac(a2-3)Gal(b1-4)]GlcNAc
# Summary of the method: as §1
# Neu5Ac(a2-3)Gal(b1-4)Glc = molecular target: Neu5Ac(a2-3)Gal(b1-4)Glc
# Summary of the method: as §1
# [31] = molecular target: Neu5Ac(a2-3)Gal(b1-4)GlcNAc
# Summary of the method: as §1
# [32] = molecular target: Neu5Ac(a2-3)Gal(b1-4)GlcNAc(b1-2)Man
# Summary of the method: as §1
binder,measurement,setting,value
B1,glycan array binding signal (z-score),[1],-0.202
same,glycan array binding signal (z-score),Man(a1-3)[Man(a1-6)]Man,-0.186
same,glycan array binding signal (z-score),[2],-0.013
same,glycan array binding signal (z-score),[3],-0.125
same,glycan array binding signal (z-score),[4],-0.18
same,glycan array binding signal (z-score),[5],-0.183
same,glycan array binding signal (z-score),[6],-0.224
same,glycan array binding signal (z-score),Man(a1-6)Man,-0.097
same,glycan array binding signal (z-score),Man(b1-4)GlcNAc,-0.166
same,glycan array binding signal (z-score),MurNAc(b1-4)GlcNAc,-0.174
same,glycan array binding signal (z-score),Neu5Ac(a2-3)Gal,-0.214
same,glycan array binding signal (z-score),[7],-0.245
same,glycan array binding signal (z-score),[8],-0.164
same,glycan array binding signal (z-score),[9],-0.245
same,glycan array binding signal (z-score),[10],-0.251
same,glycan array binding signal (z-score),[11],-0.163
same,glycan array binding signal (z-score),[12],-0.189
same,glycan array binding signal (z-score),[13],-0.234
same,glycan array binding signal (z-score),[14],-0.19
same,glycan array binding signal (z-score),[15],-0.182
same,glycan array binding signal (z-score),[16],-0.027
same,glycan array binding signal (z-score),[17],-0.177
same,glycan array binding signal (z-score),[18],-0.274
same,glycan array binding signal (z-score),[19],-0.222
same,glycan array binding signal (z-score),[20],-0.206
same,glycan array binding signal (z-score),[21],-0.271
same,glycan array binding signal (z-score),[22],-0.14
same,glycan array binding signal (z-score),[23],-0.236
same,glycan array binding signal (z-score),[24],-0.176
same,glycan array binding signal (z-score),[25],-0.203
same,glycan array binding signal (z-score),[26],-0.216
same,glycan array binding signal (z-score),[27],-0.122
same,glycan array binding signal (z-score),[28],-0.198
same,glycan array binding signal (z-score),[29],-0.11
same,glycan array binding signal (z-score),[30],-0.181
same,glycan array binding signal (z-score),Neu5Ac(a2-3)Gal(b1-4)Glc,-0.108
same,glycan array binding signal (z-score),[31],-0.214
same,glycan array binding signal (z-score),[32],-0.144
